In paper PMC7229206, “Split Intein-Mediated Protein Ligation for detecting protein-protein interactions and their inhibition” (Nature Communications, 2020):

Target: T1, NIN-RAF1 (UniProt P04049)
T1 construct: RAF1; also called NIN-RAF1 construct; source: HEK 293, transiently transfected, in live cells; not shown: V5, N-terminal, kept; GP41-1 intein N-terminal fragment IN (split at C25), N-terminal, kept
Test: split reporter (BiFC, NanoBiT); SIMPL (split intein-mediated protein ligation, GP41-1 split at C25): bait and prey co-expressed in transiently transfected HEK 293 cells; spliced product seen by western blot of lysates with α-V5 and α-FLAG; rapamycin (100 nM or a dose range, 2 min to 2 h) for FRB/FKBP1A; EGF 5 min for EGFR/SHC1 in one panel
Details: partners not purified

B1: IC-KRAS (wild type) (natural protein)
chain: not shown
notes: KRAS, wild type; The IC format was chosen to leave the C-terminal lipidation undisturbed; also called wild-type KRAS; KRAS WT; source: HEK 293, transiently transfected, in live cells; not shown: GP41-1 intein C-terminal fragment IC (split at C25), N-terminal, kept; FLAG, N-terminal, kept
- fold of the splicing signal (density) against RAF1-IN: > 6 fold
